The target in experiment [1] is Flag-tagged ABLIM1 1-216aa (human) (UniProt O14639). In words: co-IP; HCT116 (Fig. 7C) or RKO (Fig. 7G) cells transfected with Flag-ABLIM1 constructs or empty vector; Nonidet P-40 lysate; precipitating antibody not stated; immunoblot. (Immunoblotting shows a protein as a band on a membrane.)
The target of experiment [2] is Actin-binding LIM protein 1 (ABLIM1), full-length (1-778aa), Flag-tagged (human) (UniProt O14639). The experiment is described as above.
Experiment [3] concerns the target Flag-tagged ABLIM1 1-401aa (LIM domains) (human) (UniProt O14639). Described as above.
Experiment [4] has as its target Flag-tagged ABLIM1 402-778aa (human) (UniProt O14639). The experiment is described as above.
Experiment [5] concerns the target Actin-binding LIM protein 1 (ABLIM1), full-length (1-778aa), Flag-tagged (human) (UniProt O14639). The experiment in a line: co-IP; HCT116 and RKO cells transfected with NFKBIA and ABLIM1 for 48 h; Nonidet P-40 lysate; IP with anti-ABLIM1 antibody or control IgG, 4 °C overnight, protein A or G beads; immunoblot. Fig. S4: also with BAY11-7082 or srIĸBα (antibody of that IP not shown).

The chains behind the UniProt entries cited, without tags or fusion partners. Where a name states a change or a piece, a line headed by the entry shows the natural chain unless it says otherwise. A line that says so, or that is headed by a name, gives the form on record, which may keep a tag or linker. Residues count along the entry.
UniProt O14639: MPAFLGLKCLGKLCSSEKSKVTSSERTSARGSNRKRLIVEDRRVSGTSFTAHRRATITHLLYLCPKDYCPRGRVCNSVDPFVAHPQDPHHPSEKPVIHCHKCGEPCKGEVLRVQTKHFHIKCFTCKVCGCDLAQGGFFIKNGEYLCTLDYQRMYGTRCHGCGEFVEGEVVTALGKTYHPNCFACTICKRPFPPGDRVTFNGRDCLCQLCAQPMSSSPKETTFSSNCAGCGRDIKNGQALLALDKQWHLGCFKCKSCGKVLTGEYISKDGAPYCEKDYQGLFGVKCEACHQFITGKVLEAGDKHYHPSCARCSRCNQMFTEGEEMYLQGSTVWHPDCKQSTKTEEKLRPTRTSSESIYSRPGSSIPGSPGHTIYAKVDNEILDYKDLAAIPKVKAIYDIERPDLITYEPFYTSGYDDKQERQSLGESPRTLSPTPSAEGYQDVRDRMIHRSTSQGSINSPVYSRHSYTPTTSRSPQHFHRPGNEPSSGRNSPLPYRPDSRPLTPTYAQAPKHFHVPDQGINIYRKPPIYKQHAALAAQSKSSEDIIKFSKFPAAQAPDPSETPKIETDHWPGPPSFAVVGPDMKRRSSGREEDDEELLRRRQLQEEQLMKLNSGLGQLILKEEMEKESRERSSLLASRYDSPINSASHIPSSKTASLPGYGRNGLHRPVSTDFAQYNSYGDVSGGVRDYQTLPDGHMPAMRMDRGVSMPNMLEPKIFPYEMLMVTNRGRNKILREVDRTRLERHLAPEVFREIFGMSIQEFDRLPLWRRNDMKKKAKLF
Flag-tagged ABLIM1 1-401aa (LIM domains): residues 1-401 of O14639
Flag-tagged ABLIM1 1-216aa: residues 1-216 of O14639
Flag-tagged ABLIM1 402-778aa: residues 402-778 of O14639
UniProt P25963: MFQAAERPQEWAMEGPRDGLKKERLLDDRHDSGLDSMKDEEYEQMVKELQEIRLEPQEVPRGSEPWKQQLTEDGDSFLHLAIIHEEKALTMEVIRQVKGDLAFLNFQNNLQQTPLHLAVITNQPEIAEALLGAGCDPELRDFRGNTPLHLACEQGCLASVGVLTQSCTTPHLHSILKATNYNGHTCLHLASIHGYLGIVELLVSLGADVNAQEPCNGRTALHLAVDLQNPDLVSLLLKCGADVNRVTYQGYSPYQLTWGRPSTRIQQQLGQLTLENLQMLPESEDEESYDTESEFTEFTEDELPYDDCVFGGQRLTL
IĸBα non-phosphorylation mutant (S32/36 A) (P25963, form named): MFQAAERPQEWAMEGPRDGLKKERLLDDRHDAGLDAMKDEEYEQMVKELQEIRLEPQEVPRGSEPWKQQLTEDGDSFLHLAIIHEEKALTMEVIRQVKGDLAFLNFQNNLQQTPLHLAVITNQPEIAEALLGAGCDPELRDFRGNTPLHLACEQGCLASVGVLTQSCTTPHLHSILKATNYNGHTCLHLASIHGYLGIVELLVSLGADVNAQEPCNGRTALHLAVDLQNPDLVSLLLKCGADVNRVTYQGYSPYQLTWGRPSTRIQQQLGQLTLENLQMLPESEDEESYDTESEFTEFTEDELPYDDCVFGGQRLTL

These results are taken from paper PMC10850134.

These are yes or no findings as the source states them, for the method shown. In cells and extracts the contact can be indirect. Some results given as binding are weak or reduced against the parent protein; the word gives no strength.

Turning to “IĸBα in lysates of HCT116 or RKO cells transfected with Flag-ABLIM1 constructs (from UniProt P25963 1-317)”, the binding entry in experiment [1] is on record as “no binding”; in experiment [2] it was “binds”; in experiment [3] it was “no binding”; in experiment [4] it was “binds”.
Regarding “IĸBα non-phosphorylation mutant (S32/36 A) (from UniProt P25963 1-317)”, the binding entry in experiment [5] is reported as “binds”.
Turning to “IĸBα, wide type (full-length), HA-tagged (from UniProt P25963 1-317)”, the binding result in experiment [5] is on record as “binds”.
